Reference: the supplement of paper PMC4604168 (melanoma cell lines)
The list shows a part of the results. Repeats are few or missing, and single values can be far off.

Tests used:
Experiment in all cases: cell count relative to DMSO control; melanoma cells; higher = more viable cells
Conditions in all cases: library dose: low library concentration; 72 h
MZ2-MEL = tested on: MZ2-MEL
MeWo = tested on: MeWo
RPMI7951 = tested on: RPMI7951
RVH-421 = tested on: RVH-421
SkMel28 = tested on: SkMel28
SkMel2 = tested on: SkMel2
SkMel30 = tested on: SkMel30
SkMel5 = tested on: SkMel5
UACC257 = tested on: UACC257
UACC62 = tested on: UACC62
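Further: cell number obtained by counting DAPI-stained nuclei in high-throughput microscope images with image analysis software, screen run in 1,536-well plates.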

Compound | cell count (MZ2-MEL) | cell count (MeWo) | cell count (RPMI7951) | cell count (RVH-421) | cell count (SkMel28) | cell count (SkMel2) | cell count (SkMel30) | cell count (SkMel5) | cell count (UACC257) | cell count (UACC62)
CC(=O)O[C@@]12CO[C@@H]1C[C@H](O)[C@@]1(C)C(=O)[C@H](O)C3=C(C)[C@@H](OC(=O)[C@H](O)[C@@H](NC(=O)OC(C)(C)C)c4ccccc4)C[C@@](O)([C@@H](OC(=O)c4ccccc4)[C@H]21)C3(C)C [Docetaxel] + CC(C)(C)c1cnc(CSc2cnc(NC(=O)C3CCNCC3)s2)o1 [SNS-032] (first compound 0.0001 µM, partner dose 0.01 µM) | 44.6% | 36.7% | 44.2% | 74% | 31% | 34.1% | 41.2% | 71.9% | 34.7% | 46.6%
Nc1nc(F)nc2c1ncn2[C@@H]1O[C@H](CO)[C@@H](O)[C@@H]1O [fludarabine] + COc1cc2c(Oc3ccc4[nH]c(C)cc4c3F)ncnc2cc1OCCCN1CCCC1 [cediranib] (first compound 0.2 µM, partner dose 0.4 µM) | 98.5% | 32.9% | 86% | 84.7% | 75.1% | 4.63% | 16.5% | 51.6% | 118% | 78.1%
CC(=O)O[C@@]12CO[C@@H]1C[C@H](O)[C@@]1(C)C(=O)[C@H](O)C3=C(C)[C@@H](OC(=O)[C@H](O)[C@@H](NC(=O)OC(C)(C)C)c4ccccc4)C[C@@](O)([C@@H](OC(=O)c4ccccc4)[C@H]21)C3(C)C [Docetaxel] + NCC(=O)Nc1ccc(-n2nc(C(F)(F)F)cc2-c2ccc3c(ccc4ccccc43)c2)cc1 [OSU03012] (first compound 0.0001 µM, partner dose 1 µM) | 55% | 51.3% | 40.3% | 64.9% | 27.2% | 37.6% | 37.2% | 70.1% | 55.5% | 36.4%
CC(=O)O[C@@]12CO[C@@H]1C[C@H](O)[C@@]1(C)C(=O)[C@H](O)C3=C(C)[C@@H](OC(=O)[C@H](O)[C@@H](NC(=O)OC(C)(C)C)c4ccccc4)C[C@@](O)([C@@H](OC(=O)c4ccccc4)[C@H]21)C3(C)C [Docetaxel] + CCc1ccc(CCOc2ccc(CC3SC(=O)NC3=O)cc2)nc1 [pioglitazone] (first compound 0.0001 µM, partner dose 2 µM) | 47.7% | 58.4% | 50.5% | 60.6% | 63.2% | 47.8% | 36.3% | 66% | 59.2% | 44.8%
CC(=O)O[C@@]12CO[C@@H]1C[C@H](O)[C@@]1(C)C(=O)[C@H](O)C3=C(C)[C@@H](OC(=O)[C@H](O)[C@@H](NC(=O)OC(C)(C)C)c4ccccc4)C[C@@](O)([C@@H](OC(=O)c4ccccc4)[C@H]21)C3(C)C [Docetaxel] + Oc1cc(-c2nc(-c3ccccc3)[nH]c2-c2ccncc2)ccc1Cl [L779450] (first compound 0.0001 µM, partner dose 0.2 µM) | 39% | 46.3% | 45.4% | 67.1% | 50.4% | 42% | 28.1% | 78.5% | 49.2% | 37%
Nc1ncn([C@H]2C[C@H](O)[C@@H](CO)O2)c(=O)n1 [decitabine] + Cc1cc([N+](=O)[O-])ccc1NS(=O)(=O)c1cc(Cl)ccc1Cl [FH535] (first compound 0.1 µM, partner dose 1 µM) | 81.3% | 89.2% | 94.9% | 86% | 88.8% | 97.4% | 113% | 82.3% | 93.9% | 67.6%
CC(=O)c1c(C)c2cnc(Nc3ccc(N4CCNCC4)cn3)nc2n(C2CCCC2)c1=O [palbociclib] + O=C(Nc1ccccc1)c1cc([N+](=O)[O-])ccc1Cl [GW9662] (first compound 0.04 µM, partner dose 2 µM) | 73% | 69.1% | 68.2% | 95.6% | 85% | 84.2% | 73.3% | 66.7% | 86.9% | 68.1%
CC(=O)c1c(C)c2cnc(Nc3ccc(N4CCNCC4)cn3)nc2n(C2CCCC2)c1=O [palbociclib] + CC1(C)NC(=O)N(c2ccc([N+](=O)[O-])c(C(F)(F)F)c2)C1=O [nilutamide] (first compound 0.04 µM, partner dose 1 µM) | 86% | 69.4% | 80.9% | 83.8% | 69.2% | 77.6% | 73.5% | 78.9% | 65.7% | 68.9%
Nc1ncn([C@H]2C[C@H](O)[C@@H](CO)O2)c(=O)n1 [decitabine] + Cc1cc(N2CCOCC2)cc2[nH]c(-c3c(NC[C@@H](O)c4cccc(Cl)c4)cc[nH]c3=O)nc12 [BMS536924] (first compound 0.1 µM, partner dose 0.2 µM) | 95% | 99% | 92% | 99.9% | 94.9% | 99% | 98.4% | 91.6% | 92.5% | 87%
Nc1ncn([C@H]2C[C@H](O)[C@@H](CO)O2)c(=O)n1 [decitabine] + CCc1ccc(CCOc2ccc(CC3SC(=O)NC3=O)cc2)nc1 [pioglitazone] (first compound 0.1 µM, partner dose 2 µM) | 84.2% | 88.7% | 83.6% | 105% | 67.1% | 98.5% | 87% | 98% | 90.8% | 64.6%
Nc1ccn([C@@H]2O[C@H](CO)[C@@H](O)C2(F)F)c(=O)n1 [gemcitabine] + CC1(C)NC(=O)N(c2ccc([N+](=O)[O-])c(C(F)(F)F)c2)C1=O [nilutamide] (first compound 0.0004 µM, partner dose 1 µM) | 91.7% | 106% | 103% | 110% | 99.9% | 102% | 120% | 97.7% | 106% | 93.2%
Nc1ccn([C@@H]2O[C@H](CO)[C@@H](O)C2(F)F)c(=O)n1 [gemcitabine] + CN(C)S(=O)(=O)c1ccc2c(c1)/C(=C/c1cc3c([nH]1)CCCC3)C(=O)N2 [SU6656] (first compound 0.0004 µM, partner dose 0.4 µM) | 93.1% | 88.1% | 103% | 88.4% | 84% | 96.7% | 113% | 91.4% | 94.8% | 81.8%
Nc1ccn([C@@H]2O[C@H](CO)[C@@H](O)C2(F)F)c(=O)n1 [gemcitabine] + CCCCCCCCCCCC1=C(O)C(=O)C=C(O)C1=O [Embelin] (first compound 0.0004 µM, partner dose 1.2 µM) | 97.2% | 97.3% | 85.1% | 77.6% | 108% | 102% | 122% | 94.3% | 106% | 101%
Nc1ncn([C@H]2C[C@H](O)[C@@H](CO)O2)c(=O)n1 [decitabine] + NCC(=O)Nc1ccc(-n2nc(C(F)(F)F)cc2-c2ccc3c(ccc4ccccc43)c2)cc1 [OSU03012] (first compound 0.1 µM, partner dose 1 µM) | 79.8% | 63.6% | 97.2% | 69.9% | 81.6% | 89.6% | 60.6% | 76.9% | 61.9% | 76.8%
Nc1ccn([C@@H]2O[C@H](CO)[C@@H](O)C2(F)F)c(=O)n1 [gemcitabine] + O=C(Nc1cccc(Cl)c1)Nc1ncc(CCNc2ncnc3ccsc23)s1 [SNS314] (first compound 0.0004 µM, partner dose 0.0008 µM) | 98.3% | 91.1% | 98.6% | 83.4% | 99.5% | 93.5% | 113% | 104% | 93.7% | 96.2%
Nc1ncn([C@H]2C[C@H](O)[C@@H](CO)O2)c(=O)n1 [decitabine] + Oc1cc(-c2nc(-c3ccccc3)[nH]c2-c2ccncc2)ccc1Cl [L779450] (first compound 0.1 µM, partner dose 0.2 µM) | 67.5% | 95.6% | 76.3% | 75.9% | 84.2% | 91.2% | 92.6% | 106% | 81.3% | 60.4%
Nc1nc(F)nc2c1ncn2[C@@H]1O[C@H](CO)[C@@H](O)[C@@H]1O [fludarabine] + O=c1cc(-c2cccc3c2Sc2ccccc2S3)oc(N2CCOCC2)c1 [KU55933] (first compound 0.2 µM, partner dose 1 µM) | 107% | 36.6% | 83.3% | 116% | 91.5% | 7.02% | 22.5% | 68.3% | 94.6% | 85.8%
Nc1ncn([C@H]2C[C@H](O)[C@@H](CO)O2)c(=O)n1 [decitabine] + O=c1cc(-c2cccc3c2Sc2ccccc2S3)oc(N2CCOCC2)c1 [KU55933] (first compound 0.1 µM, partner dose 1 µM) | 82% | 101% | 75.7% | 104% | 85.4% | 90.6% | 92.9% | 106% | 82.1% | 61.1%
Nc1ccn([C@@H]2O[C@H](CO)[C@@H](O)C2(F)F)c(=O)n1 [gemcitabine] + COC(=O)c1sccc1S(=O)(=O)Nc1ccc(Nc2ccccc2)cc1OC [GSK0660] (first compound 0.0004 µM, partner dose 1 µM) | 99.8% | 102% | 88% | 88.7% | 94.1% | 106% | 86.8% | 98.5% | 99.4% | 87.6%
CC(=O)O[C@@]12CO[C@@H]1C[C@H](O)[C@@]1(C)C(=O)[C@H](O)C3=C(C)[C@@H](OC(=O)[C@H](O)[C@@H](NC(=O)OC(C)(C)C)c4ccccc4)C[C@@](O)([C@@H](OC(=O)c4ccccc4)[C@H]21)C3(C)C [Docetaxel] + COc1ccc(-c2ccc3c(N4CCOCC4)nc(N4C[C@@H](C)O[C@@H](C)C4)nc3n2)cc1CO [KU0063794] (first compound 0.0001 µM, partner dose 0.02 µM) | 49% | 46.9% | 41.2% | 77.5% | 44.8% | 44.3% | 29% | 68% | 41.6% | 40.1%
CC(=O)c1c(C)c2cnc(Nc3ccc(N4CCNCC4)cn3)nc2n(C2CCCC2)c1=O [palbociclib] + CN(NC(=O)CC(=O)NN(C)C(=S)c1ccccc1)C(=S)c1ccccc1 [STA4783] (first compound 0.04 µM, partner dose 0.006 µM) | 88.2% | 69.8% | 95.1% | 83.9% | 65% | 73% | 70.4% | 82.1% | 90.6% | 56%
